From the supplement of paper PMC10126150
Values marked as one replicate rest on one cluster of the flow cell; about a third of the high ones do not repeat.

System: ATP
Experiment: switch fluorescence ratio, 500 uM ATP over buffer (Cy3 cluster intensity, sum of 5 cycles each) (fold (ratio)); higher = stronger signal-on switching upon ATP binding; sequences stand for … in TCGTCGGCAGCGTCAGATGTGTATAAGAGACAGTTTTTTTTTTTTTTTTTTTTTTTTT…TC
Conditions: aptamer strand: ATP DNA aptamer (quencher-CACCTGGGGGAGTATTGCGGAGGAAGG + anchor), 100 nM annealed; ATP concentration: 500 uM; one replicate
Method in brief: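 Switching-strand clusters labelled with Cy3 on a modified Illumina MiSeq flow-cell were annealed to 100 nM quencher-labelled ATP aptamer, imaged in selection buffer, and re-imaged after 15 min with 500 uM ATP at 22 °C. This was done over five cycles with NaOH stripping and re-annealing in between. The fluorescence ratio is summed target-cycle over summed buffer-cycle Cy3 intensity per cluster, averaged per switch-domain sequence, excluding clusters outside 100-1000 RFU.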
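Further: ATP exposure 15 min at 22 °C before imaging.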

Sequence	switch fluorescence ratio
CAGAAAGGCG	1.04
CGGAACAAAC	2.97
TATGGCAGCC	0.966
GTATGAGGGT	0.938
TATTTGTCCC	1.09
AAGGGAACCG	1.23
CGCTATCTGA	1.03
TATACATGGG	1.03
ACATGAGTGG	0.986
GTCACCCAGC	1.27
GGATTCGGTT	0.979
ATTTAAATAT	0.972
CTATTTTAA	0.981
GTTGCGAACT	0.946
CCAGACTTTG	0.942
AACCGTCGGC	1.03
ATTAGGAGTG	0.956
CGGGGTTAGA	0.99
GGAAAGTGAC	0.933
TATCTTGGAG	0.988
ATCCAAAGGG	1.05
CGAATAGTAT	1.03
GTGTACATTA	1.01

Sequence	switch fluorescence ratio
GGTGTAGTAG	1.03
CTTGGGTGT	1.05
TGGGCGGAAT	1.08
GAGAATTTCA	0.968
TGTGGTACAT	1
ATTGGCCCTG	0.992
AGTTGTTATC	0.96
TCCCCAGTGT	1.21
CCCTAATACA	1.1
CTAAGACGGA	0.995
TCGATGTAGA	1.01
ACCTGGGCA	1.07
ATTTGACGTG	1.06
GTCTTCGGAA	1.15
CATTGTGAG	0.975
CTAAAGAGA	0.976
TTGAACATAC	1.28
TATCCGTACA	1.1
GGTACCGGAT	0.966
TTTTTACGAT	1.04
CACTCGTTCC	1.29
ACGACTCTCT	1.12
TTAACCGAAC	2.07

Sequence	switch fluorescence ratio
CGATCGTGTT	0.947
CCCCGCCGGC	1.55
CGTAGGGGAG	0.955
GGCGTTACGG	1.04
TTACACATCC	1.03
ATTCTTGCCA	0.976
GCACTGAGCG	0.991
AGACGTGGGC	1.05
CAAAAAGGGC	1.01
GGGATGAGTC	1.01
GCGCGCAAAG	1.01
TTTCTCTAGG	1.02
GGTCGCCTCT	0.985
AGTAGAAGGG	1.06
GCGCGTATCT	1.03
TTGCATGGT	1.02
TTAAGTTTAT	0.985
AATCCTGGTT	1.01
TTTAGAAACC	1.34
TTGATACACC	1.2
CTCGCGAGTT	1.04
TCACAAACGT	1.36
ACTCAGGGCT	1.03

Sequence	switch fluorescence ratio
GTGGCTAGCA	1.05
CAGGCTGTGG	1.02
TGACCGGTCA	0.979
CTTGGTGAGA	0.997
AAGCCAGACT	1.23
GGATAAAGGA	0.967
GGGTGCGAGC	0.958
TCCCACGTTG	1.09
TGGTACAGGC	1.05
CCGGAATAGG	2.22
ATTGAAATTA	1.04
GATGAGGAGT	1.01
CGACTTGTT	1.02
ATAAAAGTTT	0.991
TTCGGAGCTA	1.29
CGGATAAG	0.966
AAAGAGTACA	1.03
ATCACAATAT	1.12
TGTCTGTGC	1
GTTCCTGGTC	0.945
CGCGGAACTC	3.04
AGGAAATTAC	1.09
CATAAAAACG	1.38

Sequence	switch fluorescence ratio
GTTATGACGA	1.02
AACATGTAGT	0.966
TGTTTCTTGG	0.973
TGTACGTGGT	1.01
TCTTCGTACC	1.2
GGCCTGCGAT	1.13
AACTGCTGTG	1.01
GACGTGATTA	1.2
TTTTGCGTGG	0.992
ACTTTACAGA	1.37
CGAACAGGCT	1.03
CACTGAAGCT	0.97
CTCCTGTGAT	1.5
CAGTGTTTGG	0.936
CGGCTCAGTC	1.03
ACATTCGGGG	0.964
ATAGGTGCGA	1.01
GAACGCCTTT	1
AGCTCAGGCT	0.959
CTCTTGAAGT	0.996
GAAACAGCTA	1.05
CTACTCACCT	1.4
AATATGCCCC	1.06

Sequence	switch fluorescence ratio
GGGCTCAGGG	0.997
ATATATACG	1.07
CGCCCTAATC	1.23
GTTTCCTCGG	1.19
CATGGGCGCC	0.968
TGCATGAGTG	1.02
ACTGGAATGT	1.04
AGTGAGTCGC	1.03
CGTGGGAGA	1.13
CTTGGGGACC	1
ATTCGCGACG	1.02
CACTAGCCA	1.04
TAAGCCGACG	1.14
GCCGAGGGCT	0.996
ATAGTTCACG	0.97
CAAGTGGAGG	1.03
GAAAGTTTTA	1.03
TGAGGGTATG	0.965
TCTGTGCTAA	1.02
AGGTCACGGG	0.97
GGCCTTGTGA	0.988
TGAGGGAGAG	0.97
GAATATACCC	1.05

Sequence	switch fluorescence ratio
GTGTAGAATC	1.02
AAACAGTACC	1.34
ATGGACGAGG	0.967
GCGACTGATA	1.03
GTATGTCGG	0.989
TGCACATATC	1.63
CTTAGAAT	0.996
TTCTCCGTGT	1.77
GGGTTCGCAC	1.02
CCAATGTTTG	1.02
CTCGTTTGTT	0.991
CTATGGACAC	1.02
CTTTCGCCCC	1.45
CCCTGGTAGA	1.07
CCGGGACGAC	1.67
GGGGATTTTA	0.993
TAGTGGGAAG	0.935
AAAACTACAG	1.09
CCTCGCTAGT	3.54
